# B1: human VWF A1 domain ([…] with pre-pro-VWF numbering) (receptor)
# chain: not shown
# notes: range […]; In the assay this domain was not a free protein; It was expressed in HEK293T cells and coupled by disulfides to dsDNA handles; also called von Willebrand factor A1 domain
# What was measured:
# [1] = molecular target: T1, human platelet GPIbα (His1 to Arg290) (human, UniProt P07359 17-306); test: optical tweezers, force clamp at 10.05 pN on the tethered A1-GPIbα polypeptide; slow phase of the survival probability versus dwell time
# T1 construct: range 1-290; The numbers 1-290 probably count on the mature protein, not on the precursor entry; also called GP1bα; GP1bα subunit
# [2] = molecular target: T1, human platelet GPIbα (His1 to Arg290); test: optical tweezers on the tethered A1-GPIbα polypeptide in the presence of ristocetin; zero-force off-rate of state 1 extrapolated from bond lifetime versus force
# T1 sequence (P07359 17-306 limits assumed): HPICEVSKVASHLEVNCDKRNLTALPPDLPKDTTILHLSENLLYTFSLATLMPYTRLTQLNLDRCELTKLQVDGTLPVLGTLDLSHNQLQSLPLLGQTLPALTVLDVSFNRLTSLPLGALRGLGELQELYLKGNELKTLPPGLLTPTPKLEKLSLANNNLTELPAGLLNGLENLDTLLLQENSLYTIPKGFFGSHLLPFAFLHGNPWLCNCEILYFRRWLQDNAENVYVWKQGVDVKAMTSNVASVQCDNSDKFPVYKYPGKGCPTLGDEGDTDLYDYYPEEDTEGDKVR
# [3] = molecular target: T1, human platelet GPIbα (His1 to Arg290); test: optical tweezers on the tethered A1-GPIbα polypeptide in the presence of ristocetin; zero-force off-rate of state 2 extrapolated from bond lifetime versus force
# [4] = molecular target: T1, human platelet GPIbα (His1 to Arg290); test: optical tweezers, force clamp at 10.05 pN on the tethered A1-GPIbα polypeptide; fast phase of the survival probability versus dwell time
# [5] = molecular target: T1, human platelet GPIbα (His1 to Arg290); test: optical tweezers, force clamp at 10.27 pN on the tethered A1-GPIbα polypeptide; fast phase of the survival probability versus dwell time
# [6] = molecular target: T1, human platelet GPIbα (His1 to Arg290); test: optical tweezers, force clamp at 10.27 pN on the tethered A1-GPIbα polypeptide; slow phase of the survival probability versus dwell time
# [7] = molecular target: T1, human platelet GPIbα (His1 to Arg290); test: optical tweezers on the tethered A1-GPIbα polypeptide in the presence of botrocetin; zero-force off-rate extrapolated from bond lifetime versus force
binder,measurement,setting,value
B1,koff,[1],0.14 s⁻¹
same,koff,[2],0.034 s⁻¹
same,koff,[3],0.0017 s⁻¹
same,koff,[4],1.44 s⁻¹
same,koff,[5],1.33 s⁻¹
same,koff,[6],0.33 s⁻¹
same,koff,[7],0.00041 s⁻¹

# From patent publication US20130040845A1 (IMMUNE DISEASE INSTITUTE, published 2013)
